Measured values reported in PubChem BioAssay AID686978 (National Center for Advancing Translational Sciences (NCATS), 2013).
About 64,000 (15%) of roughly 420,000 compounds were called active. This list was built around the results that the source calls inconclusive (neither active nor inactive); the mix of calls is not that of the screen. The call rests on the fitted dose curve; in most records, active means well fitted inhibition curve with a large enough effect; inconclusive means small, poorly fitted or top-dose-only effect; inactive means flat fitted curve, though single readings scatter. No potency is given beside an inconclusive call; the fits are too rough.

assay: qHTS for Inhibitors of human tyrosyl-DNA phosphodiesterase 1 (TDP1): qHTS in cells in absence of CPT; conditions: DT40 Tdp1-/- hTDP1 cells, no CPT, ATP luminescence, 48 h; activity change, negative = growth inhibition: at 46.2 µM (top of the series) unless noted; further: nearly all actives have a fitted effect of over 55% in size
Method in brief: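 Seeded 400 DT40-hTDP1 cells/well (vehicle DMSO, no 20 nM CPT); pinned compounds; ≥48 hr at 37 °C; CellTiter-Glo luminescence as viability measure.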
On the % scale 0 is the no-effect control and ±100 the full control effect; potency means the concentration at half of the fitted maximal effect; tags describe the fitted curve by direction and shape.

SMILES	activity change, negative = growth inhibition	Potency
CCOc1ccc(NC(=O)Cn2cc(C(=O)c3ccc(CC)cc3)c(=O)c3cc(C)ccc32)cc1	inactive: -24.3%	–
CC(=O)c1c(C)[nH]c(C(=O)OCC(=O)Nc2cc(S(=O)(=O)N3CCCC3)ccc2Cl)c1C	–	active: 23.1 µM
CCOC(=O)C1=CCC(c2ccccc2)N(S(=O)(=O)c2ccccc2C)C1 (stereo unspecified)	–	active: 23.1 µM
COc1ccccc1/C=C/C=C(\C#N)C(=O)NC(C)c1ccccc1 (stereo unspecified)	–	active: 20.6 µM
COC(=O)[C@]1(Cc2ccccc2)N[C@H](CN(C)C(=O)c2ccc(C(C)(C)C)cc2)[C@@H]2C(=O)N(Cc3ccccc3)C(=O)[C@@H]21	–	active: 20.6 µM
CC1(C(=O)Nc2ccc3[nH]ncc3c2)CCN1C(=O)CC(c1ccccc1)c1ccccc1 (stereo unspecified)	–	inconclusive [inhibitor, single point]
COc1ccc(OCCN2CCN(S(=O)(=O)c3ccccc3C(F)(F)F)CC2)cc1	–	inconclusive [inhibitor, single point]
CSc1ccc(CNCCCN(C)C)cc1	–	inconclusive [inhibitor, single point]
O=C(N/C(=C/c1cccc([N+](=O)[O-])c1)C(=O)N1CCCCCC1)c1cccs1	–	inconclusive [inhibitor, single point]
CCN(C(=O)COC(=O)c1ccc(OC)c(S(=O)(=O)N(C)Cc2ccccc2)c1)C1CCS(=O)(=O)C1 (stereo unspecified)	inactive: -0.177%	–
Cc1csc(N(C(=O)c2ccccc2F)c2ccccc2)n1	–	active: 10.3 µM
Cc1sc(NC(=O)CN2C(=O)NC3(CCCC3)C2=O)nc1-c1ccc(F)cc1	–	inconclusive [inhibitor, partial curve]
COc1ccc2nc(SCC(=O)N3CCCCC3)c(C#N)cc2c1	–	inconclusive [inhibitor, single point]
CCCN(C(=O)c1nn(-c2ccc(OC)cc2)c(=O)c2c1c1ccccc1n2C)c1ccc(CC)cc1	–	inconclusive [inhibitor, full curve, poor fit]
COc1ccc(C(NC(C)=O)c2c(O)ccc3ccccc23)cc1OC (stereo unspecified)	inactive: -8.95%	–
CON(C)C(=O)/C=C/c1ccc([B-](F)(F)F)cc1	inactive: -25.8%	–
Cc1ccc(Cc2c(C)nc3nc(SCC(=O)NC(C)c4ccccc4)nn3c2C)cc1 (stereo unspecified)	–	inconclusive [inhibitor, single point]
Cc1ccc(CNc2ccc(N3CCOCC3)c(Cl)c2)cc1	–	inconclusive [inhibitor, single point]
CCS(=O)(=O)N1CCCC(C(=O)NCC2CCCO2)C1 (stereo unspecified)	inactive: -12%	–
CCOC(=O)/C(C#N)=C\c1cn(C)c2ccccc12	inactive: -10.7%	–
COc1ccc(NC(=O)c2csc3c2CCCCC3)cc1	–	inconclusive [inhibitor, single point]
CN(CC1CCCO1)S(=O)(=O)c1ccc(C(=O)Nc2ccc(S(N)(=O)=O)cc2)cc1 (stereo unspecified)	inactive: 10.2%	–
CC(=O)NC(CC(=O)OCC(=O)NCCc1ccccc1)c1ccccc1 (stereo unspecified)	inactive: -0.328%	–
Nc1c(Cl)ncnc1N1CCN(c2ncnc(Cl)c2N)CC1	–	inconclusive [inhibitor, partial curve]

SMILES	activity change, negative = growth inhibition	Potency
Cc1onc(-c2ccccc2)c1C(=O)OCc1nnc(-c2ccccc2)o1	–	inconclusive [inhibitor, single point]
Cc1ccc(Cc2nc3ccccc3nc2SCC(=O)NCCC(C)C)cc1	–	inconclusive [inhibitor, single point]
COc1cc(OC)cc(-c2c(-c3ccc(F)cc3)c3cc(-c4cnc(OC)nc4)ccc3n2C)c1	–	active: 13 µM
COc1cc(C(=O)NCCC(=O)NC2CCCc3ccccc32)cc(OC)c1OC (stereo unspecified)	inactive: -12.1%	–
CCN=c1sc(C(=O)Nc2ccccc2)c(C)n1CC	inconclusive: -30.5% [inhibitor]	–
Cc1ccc(-c2csc(NCCn3c(-c4ccncc4)nc4cc(C(F)(F)F)ccc43)n2)cc1	–	inconclusive [inhibitor, single point]
Cc1c(NC(=O)c2ccc(N(Cc3ccccc3)S(C)(=O)=O)cc2)c(=O)n(-c2ccccc2)n1C	inactive: -19.2%	–
CCOCCCn1c(SCC(=O)Nc2ccc(C(C)C)cc2)nc2c(sc3ccccc32)c1=O	–	inconclusive [inhibitor, single point]
Cc1cccc(-n2c(O)c(C=Nc3ccccc3O)c3ccccc3c2=O)n1	–	inconclusive [inhibitor, single point]
COc1ccc(C(=O)Nc2ccc(O)c3ccccc23)cc1	–	active: 25.9 µM
Cc1cccc(/C=C2/Sc3ccc(C(=O)N4CCOCC4)cc3NC2=O)c1	–	inconclusive [inhibitor, single point]
COC(=O)/C(=C/Nc1ccc(O)cc1)[N+](=O)[O-]	–	inconclusive [inhibitor, single point]
Cc1cc(C(=O)COC(=O)c2ccc(O)cc2)c(C)n1-c1ccccc1F	–	inconclusive [inhibitor, single point]
O=C(CSc1nnnn1-c1ccc(F)cc1)NCc1cccs1	–	inconclusive [inhibitor, partial curve]
CCOC(=O)c1sc2nc(CC(=O)OC)nc(N(C)CCc3ccccn3)c2c1C	–	inconclusive [inhibitor, single point]
COc1ccc(C(=O)NCC(c2cccnc2)N2CCc3ccccc3C2)cc1OC (stereo unspecified)	–	inconclusive [inhibitor, single point]
Cc1ccc(N(CCCCN2C(=O)c3ccccc3C2=O)C(=O)c2ccc(Cl)s2)cc1	–	inconclusive [inhibitor, single point]
CCOc1ccc(S(N)(=O)=O)cc1-c1nc2c(C(C)(C)C)nn(C)c2c(=O)[nH]1	–	inconclusive [inhibitor, single point]
NC(=O)c1ccccc1OCC(=O)Nc1ccc2c(c1)CCC2	–	inconclusive [inhibitor, single point]
CC12CCC(C(=O)Nc3ccccc3Cl)([C@H](Br)C1=O)C2(C)C (stereo partly specified)	inactive: 2.34%	–
C=CCc1cc(OC)ccc1OCCN(C)Cc1ccccc1	–	inconclusive [inhibitor, single point]
COCCN(CC(=O)Nc1ccccc1C(F)(F)F)C(=O)/C=C/c1cc(Cl)c2c(c1)OCCO2	–	inconclusive [inhibitor, single point]
BrC(/C=N/N1CCN(Cc2ccccc2)CC1)=C/c1ccccc1	–	active: 6.51 µM
Cc1cccc(-c2noc(CN(C(=O)C(c3ccccc3)c3ccccc3)C(C)C)n2)c1	–	active: 16.4 µM

SMILES	activity change, negative = growth inhibition	Potency
O=C(NCc1ccc(Cl)cc1Cl)c1ccc2nc[nH]c2c1	inactive: -3.08%	–
COc1cccc(-n2ccnc2SCC(=O)N2CCc3ccccc32)c1	–	inconclusive [inhibitor, single point]
Cn1c(CNC(=O)OC(C)(C)C)n[nH]c1=S	inactive: 3.68%	–
Cc1ccc(CNC(=O)C(=O)NCC2CCCN2S(=O)(=O)c2cc(C)ccc2C)cc1 (stereo unspecified)	–	inconclusive [inhibitor, single point]
CCc1ccc(N2C(=O)C3CCCN3C2=S)cc1 (stereo unspecified)	–	inconclusive [inhibitor, single point]
Nc1ccc(N(c2ccccc2)c2ccc(N)cc2)cc1	–	active: 13 µM
CCn1c(=O)c2cc(C(=O)Nc3cc(F)ccc3F)sc2c2ccccc21	–	inconclusive [inhibitor, partial curve]
Cc1ccccc1OCC(=O)OCC(=O)NCCc1ccccc1	inactive: -6.8%	–
COc1cc(/C=C2/C(=O)N(C)C(=S)N2C)ccc1OCc1cccc(F)c1	–	inconclusive [inhibitor, single point]
CC(=O)OCC1=C(C(=O)O)N2C(=O)C(NC(=O)c3ccc(COc4c(C)cccc4Cl)o3)C2SC1 (stereo unspecified)	inactive: -0.59%	–
CCN(CC)c1c2c(c(C#N)c3nc4ccccc4n13)CCC2	–	inconclusive [inhibitor, partial curve]
O=C(Nc1cccc(F)c1)N1CCC2(CC1)CCN(C(=O)c1csnn1)CC2	inactive: -24%	–
COc1cccc(NC(=O)Nc2ccc(C(C)(C)C)cc2)c1	–	active: 23.1 µM
CC(c1ccc(F)cc1)n1c(Cn2ncc3ccccc3c2=O)n[nH]c1=S (stereo unspecified)	–	inconclusive [inhibitor, single point]
Cn1cc(CN2CCCC(C(=O)c3cc(F)ccc3F)C2)c2ccccc21 (stereo unspecified)	–	active: 16.4 µM
COc1cc(NC(=O)CN(c2cc(C)cc(C)c2)S(=O)(=O)c2c(C)noc2C)cc(OC)c1	–	inconclusive [inhibitor, single point]
COc1nc(OC)nc(N2CCCCCC2)n1	inactive: -15.5%	–
COc1ccc(CNC(=O)C(c2ccco2)N(C(=O)c2csnn2)c2cccc(C)c2C)cc1 (stereo unspecified)	–	active: 23.1 µM
CC(c1ccncn1)N(C)Cc1nc(-c2ccc(C(F)(F)F)cc2)no1 (stereo unspecified)	–	inconclusive [inhibitor, single point]
CCN(CC)CCNC(=O)c1ccc(NC(=O)COc2ccccc2F)cc1	inactive: 9.73%	–
Cn1c(=O)c(=O)n(C)c2cc(S(=O)(=O)Nc3ccc4c(c3)OCCO4)ccc21	–	inconclusive [inhibitor, partial curve, poor fit]
O=c1c(CCc2ccccc2)nc2cnc(Oc3cccc(Cl)c3)nc2n1C[C@H]1CCCO1	–	inconclusive [inhibitor, single point]
O=C(NCCCc1ccccc1)C1CCN(c2nnc(-n3cccc3)s2)CC1	–	inconclusive [inhibitor, partial curve]
